Experimental data published in PubChem BioAssay AID1768 (National Center for Advancing Translational Sciences (NCATS), 2009).
About 620 (0.23%) of roughly 270,000 compounds were called active. Inconclusive results, whose numbers are uncertain, are shown with a selection of clear calls. Calls follow the shape of the dose curve; as a rule, active = well fitted inhibition curve with a large enough effect in the polarisation, with a control signal flat (not every such curve was filed as active); inconclusive = small, poorly fitted or top-dose-only effect, or effect the other way, or a change in a side signal; inactive = no such curve, though single readings can be large or run the other way; the % refers to the polarisation. A potency beside an inconclusive call is a rough fit, not a confirmed value. “Side channel” marks fits to a control or component signal instead of the main read-out.

Each molecule was assayed against Menin (Homo sapiens) (UniProt O00255) (assay: qHTS Assay for Inhibitors Targeting the Menin-MLL Interaction in MLL Related Leukemias: Competition With Texas Red Labeled MLL-derived Mutant Peptide). Conditions: fluorescence polarization; series mostly up to 61.6 µM.
Potency is read from the fitted curve at half-maximal effect; tags tell the direction and shape of the fitted curve or compound fluorescence and quenching.

Sequence of UniProt O00255 (O00255 whole entry, looked up): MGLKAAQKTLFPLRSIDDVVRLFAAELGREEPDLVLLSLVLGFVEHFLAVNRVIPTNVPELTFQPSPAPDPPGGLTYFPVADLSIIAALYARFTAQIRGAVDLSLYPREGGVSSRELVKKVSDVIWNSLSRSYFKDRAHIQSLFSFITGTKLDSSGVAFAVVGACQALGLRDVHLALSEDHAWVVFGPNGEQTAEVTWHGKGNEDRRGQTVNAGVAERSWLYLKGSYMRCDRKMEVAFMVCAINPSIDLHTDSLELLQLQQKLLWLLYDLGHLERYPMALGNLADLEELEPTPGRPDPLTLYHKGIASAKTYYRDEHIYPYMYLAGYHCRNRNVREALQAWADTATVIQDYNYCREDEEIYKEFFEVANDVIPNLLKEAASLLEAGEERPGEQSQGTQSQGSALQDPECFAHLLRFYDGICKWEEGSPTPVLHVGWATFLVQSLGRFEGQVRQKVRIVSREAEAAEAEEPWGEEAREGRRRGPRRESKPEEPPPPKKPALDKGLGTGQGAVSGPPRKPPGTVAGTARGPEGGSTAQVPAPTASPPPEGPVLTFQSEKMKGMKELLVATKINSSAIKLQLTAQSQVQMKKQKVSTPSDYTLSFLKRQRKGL

Potency, inconclusive:
CC(C)C1C(C#N)=C(N)Oc2n[nH]c(-c3ccccc3)c21 (stereo not drawn) 0.708 µM [inhibitor, partial curve, poor fit], Cc1ccc(CCNC(=O)c2coc3nc4ccccc4nc23)cc1 25.1 µM [inhibitor, single point], COc1ccc(/C=N/NC(=O)c2ccccc2OC)cc1COc1ccc(C)cc1 44.7 µM [fluorescent, side channel, partial curve], CCCCC1CC(CSC(=N)N)OC1=O (stereo not drawn) 7.94 µM [inhibitor, single point], COc1ccc(CCNC(=O)c2cc(S(=O)(=O)N3CCCC3)cn2C)cc1OC 3.16 µM [inhibitor, partial curve], N#Cc1cccc(-c2nc(Nc3ccccc3)c3ccccc3n2)c1 5.01 µM [quencher, side channel, full curve], Cc1ccc(/C=N/NC(=O)c2nnn(-c3nonc3N)c2CSc2ccc(Cl)cc2)cc1 2.24 µM [quencher, side channel, full curve], O=C(COc1ccccc1Cl)N1CCc2ccccc21 31.6 µM [inhibitor, single point], COc1cccc(C(=O)NNc2c3ccccc3nc3ccccc23)c1 6.31 µM [quencher, side channel, partial curve], C=CCNC(=O)c1ccc(-c2nc(-c3ccc(Cl)c(Cl)c3)cs2)cc1 2.82 µM [inhibitor, full curve], COc1cc(C(=O)NCC(=O)N/N=C/c2ccc(-c3ccc([N+](=O)[O-])cc3)o2)cc(OC)c1OC 14.1 µM [quencher, side channel, partial curve], COc1ccc2[nH]cc(CCNc3ncnc4ccc(-c5ccc(C(=O)N(C)C)cc5)cc34)c2c1 31.6 µM [quencher, side channel, single point]

Potency, inactive:
CCOC(=O)C1=C(O)/C(=C/c2ccc(OCC(=O)O)c(OCC)c2)SC1=Nc1ccc(C)cc1, O=C1CSC2=NCN(c3ccc4c(c3)OCO4)CN12, COc1ccc(CNC(=S)NCc2ccc(Cl)cc2)cc1OC, Cc1ccc(S(=O)(=O)NCC(=O)N(CCc2ccccc2)CC(=O)NCc2ccco2)cc1, O=S(=O)(c1ccccc1F)N1CCN(c2nc3ccccc3s2)CC1, Cc1nnc(NC(=O)C(c2ccccc2)c2ccccc2)s1
